Assay results as given in article PMC4336329 (PLoS ONE, 2015).
The whole screen tested about 310,000 compounds, of which about 14,000 (4.5%) showed an effect of 50% or more. The effect is printed as a negative number. Some of the results follow.

Biological target: human ether-à-go-go-related gene (hERG) potassium channel (human, UniProt Q12809)
Assay: primary screen, population patch clamp on CHO cells stably expressing hERG
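Note: peak tail current of the secondary pulse compared with the same well before compound.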

human ether-à-go-go-related gene (hERG) potassium channel, sequence (Q12809 whole entry, looked up): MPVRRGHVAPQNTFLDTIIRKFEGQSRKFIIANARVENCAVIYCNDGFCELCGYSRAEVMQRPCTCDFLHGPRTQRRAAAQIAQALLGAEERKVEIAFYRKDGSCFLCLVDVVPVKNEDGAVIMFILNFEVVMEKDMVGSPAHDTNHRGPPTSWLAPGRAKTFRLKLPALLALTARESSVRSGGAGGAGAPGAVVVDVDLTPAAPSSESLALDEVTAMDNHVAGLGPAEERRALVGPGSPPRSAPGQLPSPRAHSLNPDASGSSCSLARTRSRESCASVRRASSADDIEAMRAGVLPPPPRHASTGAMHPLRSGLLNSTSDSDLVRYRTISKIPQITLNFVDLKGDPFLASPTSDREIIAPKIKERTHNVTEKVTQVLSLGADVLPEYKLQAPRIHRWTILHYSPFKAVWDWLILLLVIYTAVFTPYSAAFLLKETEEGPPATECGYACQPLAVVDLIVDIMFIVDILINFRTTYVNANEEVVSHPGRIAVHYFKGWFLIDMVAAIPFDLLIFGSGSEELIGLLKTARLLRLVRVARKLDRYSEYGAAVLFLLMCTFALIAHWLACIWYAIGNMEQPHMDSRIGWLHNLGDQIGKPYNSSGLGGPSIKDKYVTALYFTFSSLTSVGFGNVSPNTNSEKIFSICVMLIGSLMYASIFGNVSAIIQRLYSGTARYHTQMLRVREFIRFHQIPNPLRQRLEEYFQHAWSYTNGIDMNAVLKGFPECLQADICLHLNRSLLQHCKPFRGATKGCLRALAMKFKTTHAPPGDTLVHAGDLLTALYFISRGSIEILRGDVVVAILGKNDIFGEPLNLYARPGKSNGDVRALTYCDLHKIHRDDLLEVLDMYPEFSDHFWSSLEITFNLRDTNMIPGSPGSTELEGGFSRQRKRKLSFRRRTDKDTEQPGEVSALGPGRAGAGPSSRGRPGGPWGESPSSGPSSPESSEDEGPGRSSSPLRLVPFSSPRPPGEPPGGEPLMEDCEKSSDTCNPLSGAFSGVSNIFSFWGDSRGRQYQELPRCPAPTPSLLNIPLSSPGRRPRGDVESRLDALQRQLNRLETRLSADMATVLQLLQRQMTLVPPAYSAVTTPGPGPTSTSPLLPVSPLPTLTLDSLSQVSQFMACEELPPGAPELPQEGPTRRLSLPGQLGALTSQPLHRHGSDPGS

| SMILES | hERG current change (%, negative = inhibition) at 10uM [%] |
| --- | --- |
| CCOC(=O)C1=C(C)C(c2ccccc2)NC(=S)N1 (centres unmarked) | -0.524 |
| C=CCn1c(SCC(=O)C(C)(C)C)nnc1-c1cccs1 | -14.3 |
| CCOC(=O)c1c(S(=O)(=O)Nc2ccccn2)c(C)n(C)c1C | 4.84 |
| CCN(CC)S(=O)(=O)c1ccc(N2CCOCC2)c(NC(=O)COc2ccccc2C)c1 | 8.22 |
| O=C(c1ccc(S(=O)(=O)N2CCCC2)cc1)N1CCCC(C(F)(F)F)C1 (centres unmarked) | -1.99 |
| Cc1ncsc1CCSc1n[nH]c(=O)n1-c1ccccc1 | 1.72 |
| Cc1cccc(NC(=S)NC(=O)CCc2ccccc2)c1 | -0.586 |
| O=C(CN1CCCC1)NCC(=O)Nc1ccc(F)cc1 | 8.87 |
| O=C(O)C(=O)O.c1cc2c(cc1CN1CCN(C3CCCCCC3)CC1)OCO2 | -30 |
| Cc1oc(CSCC2CCCO2)cc1C(=O)O (centres unmarked) | 3.13 |
| O=C(O)CCCCCCNC(=O)c1cncc(O)c1 | 17.3 |
| Cc1ccccc1CSc1nnc(C)n1N | -16.4 |
| CCOCCCNC(=O)Cn1cnc2c(cnn2-c2ccc(OC)cc2)c1=O | -14.5 |
| O=C(N/N=C/c1ccc(Br)s1)c1ccccn1 | -13 |
| CCn1c(SCC(=O)OC(C)C)nnc1-c1cccc(Cl)c1 | -13.6 |
| CCN(CCNC(=O)C1CCN(Cc2nc(-c3ccc(Cl)cc3)oc2C)CC1)c1ccccc1 | -65.9 |
| Cc1ccc(S(=O)(=O)N2CCCC(C(=O)NNCC(=O)Nc3cc(F)ccc3F)C2)cc1 (centres unmarked) | -41.7 |
| Cc1ccc(CSCC(=O)N(C)CC(=O)Nc2ccccc2C(F)(F)F)cc1 | -0.53 |
| Cn1nc(NC(=O)CC23CC4CC(CC(C4)C2)C3)c2c(F)cccc21 | 9.37 |
| CN1CCN(Cc2cccc(Oc3ccccc3)c2)CC1 | -28.2 |
| O=C(CSc1ncccn1)NC(=O)Nc1ccc2c(c1)OCCO2 | -6.64 |
| CC(C)c1cc(C(N)=O)c(NC(=O)C2CCC2)s1 | -14.7 |
| Cc1ccc(C)n1-c1ncn[nH]1 | 11 |

| SMILES | hERG current change (%, negative = inhibition) at 10uM [%] |
| --- | --- |
| CC(=O)N/N=C(\C)CC(=O)Nc1cccc2c1CCCC2 | 11 |
| Cc1cccc(N2CCN(Cc3nc(C4CC4)no3)CC2)n1 | -4.45 |
| COc1ccc(C(=O)NC(=S)N(C)C2CCCCC2)cc1 | 15.6 |
| N#C/C(=C\c1ccc(N2CCOCC2)o1)C(=O)NCCc1ccccc1 | -57.9 |
| Cn1c(SCCCC(=O)c2ccc(F)cc2)nnc1-c1ccncc1 | -59.6 |
| CCC(C)c1c(O)nc(SCC(=O)c2ccccc2)[nH]c1=O (centres unmarked) | 22.3 |
| COc1ccc(NS(=O)(=O)c2ccc(NC(=S)NC(=O)c3ccc(Br)cc3)cc2)nn1 | -6.77 |
| CC(=O)COc1ccc2c(-c3cccc([N+](=O)[O-])c3)cc(=O)oc2c1 | -25.9 |
| CC1CCN(C(=O)CSc2nc(=O)n3cc(Cl)ccc3n2)CC1 | -14.3 |
| COc1ncnc(OC)c1NC(=O)c1ccc(F)cc1 | 6.88 |
| COc1cccc(CN2CCN(C3CCN(c4cccc(C)c4C)CC3)CC2CCO)c1 (centres unmarked) | -66.2 |
| C/C(=N\NC(=O)c1cc(C)oc1C)c1ccc(C)c([N+](=O)[O-])c1 | 7.87 |
| COC(=O)C(Cc1ccccc1)NS(=O)(=O)c1ccc(F)cc1Br (centres unmarked) | -8.54 |
| COc1ccc(N(C(=O)/C=C/C(=O)Nc2cc(C)on2)C(C(=O)NC2CCCC2)c2ccccc2C)cc1 (centres unmarked) | -1.3 |
| CC(C(=O)N1CCOCC1)n1cc([N+](=O)[O-])cn1 (centres unmarked) | 15.9 |
| O=C(CSc1ccc2nnc(-c3ccccc3)n2n1)N1CCCc2ccccc21 | -62.7 |
| Cc1cc(Nc2ccccc2O)c2ccccc2n1.Cl | -18.6 |
| Cc1c(C(C)NC(=O)c2ccc3nc(Cc4ccccc4F)oc3c2)cnn1C (centres unmarked) | 12.2 |
| COc1cccc(NC(=O)c2ccc[n+](C)c2)c1.[I-] | 18.2 |
| O=C(OCC(=O)N1CCc2ccccc21)c1ccc[nH]c1=O | 15.9 |
| O=C(CCSc1ccccc1)NCC1CCCO1 (centres unmarked) | -1.67 |
| Cc1ccccc1N(CC(=O)Nc1ccc(S(=O)(=O)N2CCOCC2)cc1)S(C)(=O)=O | -4.47 |
| Cc1ccc(S(=O)(=O)/N=S(/c2ccccc2)C(C)C)cc1 (centres unmarked) | 14.3 |

| SMILES | hERG current change (%, negative = inhibition) at 10uM [%] |
| --- | --- |
| COc1ccc(-c2noc(C(=O)NCc3ccc(F)cc3)n2)cc1OC | -14.2 |
| CCOC(=O)c1c(C)nc2sc3c(c2c1-c1ccc(OC)cc1)NC(c1ccc(OC)cc1)NC3=O (centres unmarked) | 11.2 |
| COc1ccc(CC(=O)N2CC3(C)CC2CC(C)(C)C3)cc1OC (centres unmarked) | -20.2 |
| O=c1[nH]c2ccccc2cc1CN(Cc1ccco1)S(=O)(=O)c1ccccc1 | 11.5 |
| CCc1nnc(NC(=O)CCC(=O)Nc2ccc(OC)cc2OC)s1 | 21.9 |
| O=C(Nc1ccccc1)C1=C[C@@H](c2coc3ccccc3c2=O)C[C@@H](OCc2ccc(CO)cc2)O1 | -13.5 |
| CC1CC(C)CN(C(=O)c2ccc3nc[nH]c3c2)C1 (centres unmarked) | 4.05 |
| CCCCn1cc(C(=O)c2cc(Br)ccc2O)cc(C#N)c1=O | 10.5 |
| Fc1ccc(-c2cc(C(F)(F)F)n3ncnc3n2)cc1 | 26.8 |
| CCOC(=O)c1cc2c(=O)n3ccccc3nc2n(C)c1=NC(=O)c1c(-c2c(F)cccc2Cl)noc1C | 14 |
| COc1ccc(O)c(C(=O)c2cnc3c(c2)c(-c2ccc(F)cc2)c(C#N)c(=O)n3C)c1 | 12.6 |
| Cc1ccc(C)c(NC(=O)CCC(=O)N/N=C2/CC(=O)CC(C)(C)C2)c1 | 17.4 |
| CCCCNC(=O)C1CC(=O)N(c2ccc(OC)cc2)C1c1ccc(OC)cc1 (centres unmarked) | -7.84 |
| O=C(CSc1nnc(NC(=O)Cc2ccccc2)s1)NCC1CCCO1 (centres unmarked) | 15.8 |
| C/C(=N\O)c1ccc2c3c([nH]c2c1)CCCC3 | 2.61 |
| COc1cccc(-c2coc3c(C)c4oc(=O)c(CC(=O)O)c(C)c4cc23)c1 | 14.4 |
| O=C(NC1CCCCCC1)c1cc(S(=O)(=O)N2CCOCC2)ccc1F | -5.52 |
| COC(=O)c1cc(=O)n2c(-c3ccccc3)csc2n1 | -2.69 |
| CC1(C)OC(C(O)(c2ccccc2)c2ccccc2)[C@@H](C(O)(c2ccccc2)c2ccccc2)O1 (some centres unmarked) | 11.7 |
| Cl.c1coc(Cn2nnnc2CN2CCN(C3CCCCC3)CC2)c1 | -41.4 |
| O=C(NCCCN1CCOCC1)c1ccccc1N1C(=O)[C@@H]2Cc3c([nH]c4ccccc34)C(c3cccc(Cl)c3)N2C1=O (some centres unmarked) | -72.3 |
| Cc1c(C(=O)NC(C)C2CC3CCC2C3)cccc1[N+](=O)[O-] (centres unmarked) | 19.5 |
| COc1ccc(-c2nn(-c3ccccc3)cc2/C=C/C(=O)OCC(=O)Nc2cccc(C#N)c2)cc1 | -3.43 |

| SMILES | hERG current change (%, negative = inhibition) at 10uM [%] |
| --- | --- |
| COC(=O)C(O)(c1ccc(NC(=O)NC2CCCCC2)cc1)C(F)(F)F (centres unmarked) | 18.1 |
| Cc1ccc(-c2c(C)n([O-])c3c([n+]2=O)CCCCC3)cc1 | 9.47 |
| COc1ccc(CCC(=O)NCCc2ccc(Cl)cc2)cc1 | 0.298 |
| CCNC(=O)CC1C(=O)N(c2ccccc2)C(=O)N1Cc1ccc(OC)cc1 (centres unmarked) | 12.3 |
| Nc1nonc1-c1noc(N2CCCCC2)n1 | 7.3 |
| COc1ccc2c(c1)c(=O)cc(-c1ccccc1)n2C | 0.0751 |
| O=C(CN1C(=O)NC2(CCCCC2)C1=O)Nc1ccc(Cl)c(S(=O)(=O)N2CCOCC2)c1 | 2.3 |
| O=C(CSc1ccc2ccccc2n1)N/N=C/c1ccccc1O | 17.7 |
| CN1CCCN=C1COC(=O)C(O)(c1ccccc1)C1CCCCC1.Cl (centres unmarked) | -3.38 |
| NS(=O)(=O)c1ccc(NS(=O)(=O)c2ccc(NC(=S)Nc3ccccc3)cc2)cc1 | 9.49 |
| CCOC(=O)c1sc2nc(CC(=O)OC)nc(NCC(=O)OC)c2c1C | -9.05 |
| CCC(C)NS(=O)(=O)c1cc2c3c(c1)CCN3C(=O)CC2 (centres unmarked) | -2.85 |
| CCCn1c(C)c(C(=O)c2cccc3ccccc23)c2ccccc21 | -7.13 |
| CCOC(=O)c1cc2occc2n1Cc1ccc(F)cc1 | 8.07 |
| NC(=O)c1ncc(C(F)(F)F)cc1Oc1cccc(F)c1 | 7.09 |
| O=C(OCC(=O)N1CCN(c2ccccc2)CC1)c1cc(Br)ccc1Cl | -25.3 |
| CCC(C)Nc1nc2c(c(=O)n(C)c(=O)n2C)n1Cc1cccc(C)c1 (centres unmarked) | -20.1 |
| Cc1ccc(C2=N/C(=C\N3CCCCC3)C(=O)O2)cc1 | -7.6 |
| Cc1ccc(OCC(=O)N/N=C\c2cccs2)c([N+](=O)[O-])c1 | 1.33 |
| Cc1ccc(S(C)(=O)=O)cc1C(=O)NC(C)C1CC2CCC1C2 (centres unmarked) | 14.6 |
